Experimental data published in PubChem BioAssay AID330 (DTP/NCI, 2004).
Toxic doses and inconclusive results are not listed. Certain results were filed several times, with different values. The other results are left out here. An entry can have further records. Values that stand side by side are repeated measurements (runs, samples, wells, individuals or studies). A tag in brackets gives the origin of a value. Letters count within one entry. Additions like (4×) say how often a value occurs here.

System: P388 leukemia ip, CD2F1 mice, survival T/C
Assay: NCI In Vivo Anticancer Drug Screen. Data for tumor model P388 Leukemia (intraperitoneal) in CD2F1 (CDF1) mice
Settings: endpoint: median survival time, higher = longer survival
[1] = dose: 25.0 mg/kg/injection, schedule: Q01DX009 (ip), vehicle: saline with Tween-80

`COc1cccc2c1C(=O)c1c(O)c3c(c(O)c1C2=O)C[C@@](O)(CO)C[C@@H]3OC1CC(N)C(O)C(C)O1` (stereo not given in full) was tested, and the T/C (dose: 3.13 mg/kg/injection, schedule: Q01DX009 (ip), vehicle: water) was 122 % of control and 167 % of control.

For `NC(Cc1cc([N+](=O)[O-])ccc1CN(CCCl)CCCl)C(=O)O` (stereo not given), the T/C (dose: 12.5 mg/kg/injection, schedule: Q01DX001 (ip), vehicle: Klucel (hydroxypropylcellulose) (HPC)) was 88 % of control and 186 % of control.

For `COc1ccc(CC2C(=O)NC(C)C(=O)N(C)C3C(=O)N(C)C(Cc4ccc(O)c(c4)Oc4ccc(cc4)C3O)C(=O)NC(C)C(=O)NC(C)C(=O)N2C)cc1` (stereo not given), the T/C (dose: 0.25 mg/kg/injection, schedule: Q01DX009 (ip), vehicle: saline + alcohol) was 113 % of control and 153 % of control, the T/C (dose: 0.5 mg/kg/injection, schedule: Q01DX009 (ip), vehicle: Klucel (hydroxypropylcellulose) (HPC)) was 116 % of control and 155 % of control and the T/C (dose: 0.5 mg/kg/injection, schedule: Q01DX009 (ip), vehicle: saline + alcohol) was 116 % of control and 153 % of control. For the same molecule, the T/C (dose: 2.0 mg/kg/injection, schedule: Q01DX009 (ip), vehicle: Klucel (hydroxypropylcellulose) (HPC)) was 120 % of control and 167 % of control.

`NC(CSC(c1ccccc1)(c1ccccc1)c1ccccc1)C(=O)O` (stereo not given) was tested, and the T/C (dose: 12.0 mg/kg/injection, schedule: Q01DX009 (ip), vehicle: water) was 118 % of control and 159 % of control, the T/C (dose: 17.8 mg/kg/injection, schedule: Q01DX009 (ip), vehicle: water) was 118 % of control, 154 % of control, 159 % of control and the T/C [1] was 159 % of control, 169 % of control, 181 % of control [sample A] and 119 % of control [sample B]. The T/C (dose: 26.7 mg/kg/injection, schedule: Q01DX009 (ip), vehicle: water) was 118 % of control and 163 % of control (2×).

For `NC(=O)Nc1cc(NC(N)=O)cc(N(CCCl)CCCl)c1`, the T/C (dose: 5.0 mg/kg/injection, schedule: Q04DX003 (ip), vehicle: water) was 100 % of control and 150 % of control and the T/C (dose: 10.0 mg/kg/injection, schedule: Q04DX003 (ip), vehicle: water) was 116 % of control and 157 % of control.

In the case of `COc1cc2c(c(OC)c1OC)-c1ccc(OC)c(=O)cc1[C@@H](NC(=O)CCl)CC2`, the T/C (dose: 0.62 mg/kg/injection, schedule: Q01DX009 (ip), vehicle: saline) is reported as 113 % of control and 168 % of control.

`COc1cccc2c1C(=O)c1c(O)c3c(c(O)c1C2=O)C[C@@](O)(C(=O)CO)C[C@@H]3OC1CC(N)C(OC)C(C)O1` (stereo not given in full) was tested, and the T/C (dose: 0.64 mg/kg/injection, schedule: Q04DX003 (ip), vehicle: saline) was 105 % of control and 181 % of control.

With `CCNC(=O)OCc1c(COC(=O)NCC)c(-c2ccc(Cl)c(Cl)c2)n2c1CCC2` the T/C [1] was 103 % of control and 165 % of control.

In the case of `C[As](C)SCC(NC(=O)CCC(N)C(=O)O)C(=O)NCC(=O)O` (stereo not given), the T/C (dose: 50.0 mg/kg/injection, schedule: Q01DX009 (ip), vehicle: saline) is reported as 113 % of control and 152 % of control.

In the case of `CC(C)(C)[Si](C)(C)OC(=O)Nc1ccc(N(CCCl)CCCl)cc1`, the T/C (dose: 20.0 mg/kg/injection, schedule: Q04DX003 (ip), vehicle: distilled water + Tween-80) is reported as 89 % of control and 182 % of control.

In the case of `C1CN1c1nnc(N2CC2)nn1`, the T/C (dose: 15.0 mg/kg/injection, schedule: Q01DX005 (ip), vehicle: saline) is reported as 88 % of control and 166 % of control.

`COc1cccc2c1C(=O)c1c(O)c3c(c(O)c1C2=O)C[C@@](O)(C(=O)CO)C[C@@H]3OC1CC(NC=O)C(O)C(C)O1` (stereo not given in full) was tested, and the T/C (dose: 3.13 mg/kg/injection, schedule: Q01DX009 (ip), vehicle: Klucel (hydroxypropylcellulose) (HPC)) was 116 % of control and 154 % of control, the T/C (dose: 6.25 mg/kg/injection, schedule: Q01DX009 (ip), vehicle: Klucel (hydroxypropylcellulose) (HPC)) was 104 % of control and 157 % of control and the T/C (dose: 12.5 mg/kg/injection, schedule: Q01DX009 (ip), vehicle: Klucel (hydroxypropylcellulose) (HPC)) was 110 % of control and 170 % of control. For the same molecule, the T/C (dose: 25.0 mg/kg/injection, schedule: Q01DX009 (ip), vehicle: Klucel (hydroxypropylcellulose) (HPC)) was 112 % of control and 200 % of control.

In the case of `COc1cc2c(c(OC)c1O)-c1ccc(OC)c(=O)cc1[C@@H](NC(C)=O)CC2`, the T/C (dose: 20.0 mg/kg/injection, schedule: Q01DX009 (ip), vehicle: Klucel (hydroxypropylcellulose) (HPC)) is reported as 90 % of control and 180 % of control.

With `CO[C@H](/C(C)=C/C=C/C(C)=C/c1coc(C)n1)[C@H](C)[C@H]1C[C@@H](O)[C@@]2(C)O[C@H]2/C=C/[C@@H](C)[C@@H]2C[C@@H](CC(=O)O2)C[C@H]2O[C@@H]2C(=O)O1` the T/C (dose: 40.0 micrograms/kg/injection, schedule: Q01DX005 (ip), vehicle: Klucel (hydroxypropylcellulose) (HPC)) was 116 % of control and 150 % of control.

`O=C(Nc1ccc(C2=NCCCN2)cc1)c1ccc(C(=O)Nc2ccc(C3=NCCCN3)cc2)cc1` was tested, and the T/C (dose: 6.48 mg/kg/injection, schedule: Q04DX003 (ip), vehicle: Klucel (hydroxypropylcellulose) (HPC)) was 121 % of control and 158 % of control.
